# Source: article PMC6919601, “Identification of Plasmodium dipeptidyl aminopeptidase allosteric inhibitors by high throughput screening” (PLoS ONE, 2019)
# About 230 (0.21%) of roughly 110,000 compounds showed an effect of 50% or more. Some of the results follow.
# Molecular target: DPAP1 (Plasmodium falciparum, UniProt Q8IIJ9)
# Experiment: primary screen, percent inhibition; read by cleavage of a fluorogenic dipeptide substrate; higher = more effect of the substance
# Parameters: species or system P. falciparum D10 trophozoite lysates; single well
# 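Note: 30 min substrate incubation versus DMSO and 10 µM JCP410 controls.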
# Sequence of DPAP1 (Q8IIJ9 whole entry, looked up): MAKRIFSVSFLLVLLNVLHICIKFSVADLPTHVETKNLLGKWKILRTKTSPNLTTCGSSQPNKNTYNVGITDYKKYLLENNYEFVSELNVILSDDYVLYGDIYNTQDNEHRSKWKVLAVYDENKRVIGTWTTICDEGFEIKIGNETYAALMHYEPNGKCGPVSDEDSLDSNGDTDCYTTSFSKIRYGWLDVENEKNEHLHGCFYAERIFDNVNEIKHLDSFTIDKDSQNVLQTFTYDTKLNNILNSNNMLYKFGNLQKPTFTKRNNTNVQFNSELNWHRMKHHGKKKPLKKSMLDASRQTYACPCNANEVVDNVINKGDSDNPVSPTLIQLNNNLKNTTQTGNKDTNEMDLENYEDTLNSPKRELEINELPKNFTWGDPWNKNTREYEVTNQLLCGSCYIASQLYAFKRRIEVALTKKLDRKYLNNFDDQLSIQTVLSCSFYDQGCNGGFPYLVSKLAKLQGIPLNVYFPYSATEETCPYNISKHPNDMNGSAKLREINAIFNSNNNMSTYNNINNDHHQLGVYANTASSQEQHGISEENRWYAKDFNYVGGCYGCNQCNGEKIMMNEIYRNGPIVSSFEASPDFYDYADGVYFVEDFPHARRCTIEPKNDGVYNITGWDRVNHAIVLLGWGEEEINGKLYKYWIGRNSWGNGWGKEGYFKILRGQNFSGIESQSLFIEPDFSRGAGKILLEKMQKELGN
row,SMILES,% Inhibition @ 10 uM
1,COc1ccc(-c2nc(S)c3c(n2)Oc2c(O)cccc2C3)cc1OC,10.6%
2,Cc1nn(-c2nc3c(C)cccc3s2)c(N)c1C#N,-3.63%
3,Cc1ccc(-c2csc(/C(C#N)=C/c3ccccc3F)n2)c(C)c1,-5.32%
4,CCC(O)(C#CCN1CCCCC1)CC,1.13%
5,CCCC1=Nc2ncnn2C(c2cc(OC)ccc2OC)/C1=C(/O)OCC (stereo not shown),-3.37%
6,COC(=O)C1=C(C)N=C(C)/C(=C(/O)OC)C1c1ccc(Cl)cc1 (stereo not shown),1.57%
7,Cc1cc(=O)n(CC(=O)NCCc2ccccc2)c2c1c(C)nn2C,2.29%
8,COc1cc(C2C3=C(O)CC(C)(C)CC3=NC(C)=C2C(=O)OCc2ccccc2)ccc1O (stereo not shown),3%
9,CCOC(=O)c1c(NC(=O)C2CCCCC2C(=O)O)sc(C)c1-c1ccc(F)cc1 (stereo not shown),3.94%
10,CCN(CC)c1ccc(NC(=O)c2ccccc2C)c(C)c1,-1.61%
11,COc1ccc(-c2noc(CC(=O)Nc3ccccn3)n2)cc1,0.581%
12,Cn1nc(C(=O)Nc2cccnc2Cl)c2c1-c1ccccc1OC2,1.68%
13,COc1ccc(-c2[nH]nc3c2C(c2ccc(N4CCOCC4)cc2)C(C#N)=C(N)O3)cc1 (stereo not shown),0.343%
14,O=C(NCCN1CCCCCC1)c1csc2c1CCCC2,-3.21%
15,CCc1ccc(OCc2ccc(C(=O)Nc3ccon3)cc2)cc1,-2.9%
16,O=C(Nc1cccnc1)c1nn2c(C(F)(F)F)cc(-c3ccco3)nc2c1Br,-3.09%
17,Cc1cccc(-n2nc3c(c2NC(=O)CC2CCCCC2)CS(=O)(=O)C3)c1C,6.04%
18,CC1=C(C(=O)Nc2ccc(Br)cn2)C(c2ccccc2)C2=C(O)CCCC2=N1 (stereo not shown),-8.64%
19,O=C(CNC(=S)N(Cc1ccccc1F)C1CCCCC1)NCc1ccco1,-5.8%
20,Cn1c(NCc2ccco2)nc2c1c(=O)n(CCc1ccccc1)c(=O)n2C,1.97%
21,CCC1CCc2c(sc(NC(=O)c3ccncc3)c2C#N)C1 (stereo not shown),2.38%
22,Cc1ccc(C(=O)Nc2c(C(=O)N3CCCCCC3)cnn2-c2ccccc2)cc1,-2.82%

row,SMILES,% Inhibition @ 10 uM
1,CN1CCC(N(C)Cc2coc3ccccc3c2=O)CC1,-0.127%
2,O=Cc1c[nH]c2ccc(S(=O)(=O)N3CCc4ccccc4C3)cc12,2.35%
3,CCN(CC)c1ccc(NC(=O)C2CC3CCC2C3)cc1 (stereo not shown),-0.67%
4,COc1cccc(-c2ccc(C#N)c(SCC(=O)Nc3ccccc3)n2)c1,0.726%
5,O=C(CSc1cn(CC(=O)N2CCCCC2)c2ccccc12)N1CCOCC1,-2.55%
6,Cc1nn(CC(=O)NCCCN2CC(C)CC(C)C2)c(=O)c2cc3sccc3n12 (stereo not shown),-3.35%
7,Cc1cc(SCC(=O)Nc2nsc(-c3ccccc3)n2)nc2ccccc12,-3.63%
8,C=CCn1c(SCC(=O)Nc2nonc2C)nnc1-c1cccs1,1.76%
9,CCSC1=NSC2=NC(=O)/C(=C\c3ccc(CC)cc3)C(=N)N12,1.83%
10,CC(C)(C)OC(=O)N1CCN(C(=O)C(=O)c2c[nH]c3ccccc23)CC1,-1.11%
11,CC(C)CNc1ncnc2onc(-c3ccc(F)cc3)c12,-0.495%
12,COc1ccc(-c2noc(CN(C(C)C)S(=O)(=O)c3ccc(F)cc3)n2)cc1,1.94%
13,CCO/C(O)=C1\C(C)=NC(=S)NC1c1ccccc1F (stereo not shown),-9.83%
14,CN(C(=O)c1cc2c(O)nc3ccccc3c2s1)C1CCCCC1,-4.14%
15,Cc1cc(NC(=O)c2noc3c2CCCC3)nn1Cc1ccc(Cl)cc1,-1.84%
16,COc1ccc(C(=O)N2CCN(C(=O)c3ccco3)CC2)cc1,-1.86%
17,COc1ccc(C(=O)N2CCN=C2SCc2ccc(Cl)cc2)cc1,-2.83%
18,COc1ccccc1NC(=O)C1=C(C)Nc2nc(CCCO)nn2C1c1cccc(Br)c1 (stereo not shown),0.528%
19,COc1ccc(NC(=O)C(CC(=O)O)Cc2ccc(Cl)cc2)cc1 (stereo not shown),2.43%
20,COc1cccc2c1cc1c(=O)n(CC(=O)NC3CCC(C)CC3)nc(C)n12 (stereo not shown),-3.47%
21,COc1ccccc1-c1cc(C(=O)Nc2c(C)nn(Cc3ccc(F)cc3)c2C)no1,-3.36%
22,O=C(c1ccc(F)cc1)N(Cc1ccccc1)Cc1ccccc1,-0.0217%

row,SMILES,% Inhibition @ 10 uM
1,COc1ccc(Br)cc1C1C(C#N)=C(N)Oc2[nH]nc(-c3ccc4c(c3)OCO4)c21 (stereo not shown),3.99%
2,O=C(c1cccnc1Cl)N1CCN(c2ccccc2)CC1,-5.26%
3,CCn1cc(CCCC(=O)NCc2ccc(C)cc2)c2ccccc21,0.658%
4,COc1ccc(C2(CC(=O)Nc3ccc(Br)cc3)C(=O)c3ccccc3C2=O)cc1,-9.7%
5,Cc1cc2nc(C)n(CC(C)C)c2cc1C,0.596%
6,COCCn1c(Cc2cccn2C)nnc1SCC(=O)Nc1nccs1,-3.68%
7,Cc1ccc(S(=O)(=O)N(CC(=O)NCc2ccco2)c2ccc(Cl)c(C(F)(F)F)c2)cc1,1.86%
8,Cc1ccc(Sc2c(C(=O)NCc3cccnc3)[nH]c3ccccc23)cc1,-9.13%
9,CCCCC(=O)Nc1scc(-c2ccc(OC)cc2)c1C(=O)O,-2.8%
10,COc1ccc(NC(=O)COc2ccc(C(=O)Nc3ccccc3OC)cc2)cc1,2.22%
11,Cc1ccc2cc(C(=O)O)[nH]c2c1,-0.0309%
12,Oc1nc(SCCc2ccccc2)nc2ccccc12,1.13%
13,Cc1onc(-c2ccccc2Cl)c1C(=O)Nc1nn[nH]n1,-1.1%
14,O=C(O)C1C2C=CC(O2)C1C(=O)Nc1cccc(C(F)(F)F)c1 (stereo not shown),-8.28%
15,CN1C(=O)C(O)(CC(=O)c2cccs2)c2cc(Br)ccc21 (stereo not shown),-4.68%
16,Cc1coc2cc3oc(=O)c(CCC(=O)O)c(C)c3cc12,0.558%
17,CCc1ccc(-c2cn3cc(C)ccc3n2)cc1,-2.2%
18,CN(Cc1ccccc1)S(=O)(=O)c1nnc(NC(=O)c2ccco2)s1,0.813%
19,CCOc1ccc2c(=O)c(-c3ccccc3)c(C)oc2c1,-4.57%
20,Cc1ccc(/C=C2/SC(N3CC(C)OC(C)C3)=NC2=O)o1 (stereo not shown),17.1%
